Reference: patent US20170239239A1, “Method for Inducing a Sustained Immune Response” (Immune Therapeutics Inc., priority 2016, published 2017)
Read-outs that look alike come from different tables or passages of the source.

Tests used:
fibromyalgia [1] = test: Randomized, double blind, placebo-controlled crossover study in 31 women with fibromyalgia; type: in vivo, human
Excerpt: Thirty-one women with fibromyalgia participated in the randomized, double blind, placebo-controlled, and counterbalanced, crossover study. […] An intensive longitudinal design was used to measure daily levels of pain.

[2] = system: CDK Inhibitors p15, p18, p19, and p27; test: Expression of CDK inhibitors
Hashimoto's = test: Case reports, Hashimoto's thyroiditis
Protocol: Patient was taking L-thyroxine and pain medications and 75 mg Zoloft.
Patients was taking Synthroid 150 mcg, Compounded T3 25 mcg, Progesterone 150 mg, Plus lots of supplements like Magnesium, D3, Methyl B12, Methyl folate, Selenium, E, Amino Restore, CLA, NAC, DE, Adaptacin.

multiple sclerosis (MS) = test: Double-masked placebo-controlled crossover study of quality of life in MS, 80 subjects; type: in vivo, human
Excerpt: RESULTS: Eighty subjects with clinically definite MS were enrolled, and 60 subjects completed the trial. Ten withdrew before completing the first trial period: 8 for personal reasons, 1 for a non-MS-related adverse event, and 1 for perceived benefit. Database management errors occurred in 4 other subjects, and quality of life surveys were incomplete in 6 subjects for unknown reasons. […] LDN was associated with significant improvement on the following mental health quality of life measures: a 3.3-point improvement on the Mental Component Summary score of the Short Form-36 General Health Survey (p=0.04), a 6-point improvement on the Mental Health Inventory (p<0.01), a 1.6-point improvement on the Pain Effects Scale (p=0.04), and a 2.4-point improvement on the Perceived Deficits Questionnaire (p=0.05). […] Further studies with LDN in MS are warranted.

stomach cancer = test: Case report, stage 3 stomach cancer; type: in vivo, human
Excerpt: person diagnosed with stage 3-stomach cancer prognosis 6 months to live on Mar. […] 28, 2007. In addition to Immediate release naltrexone patients received chemotherapy and kidney stents inserted.

Crohn's disease = test: Open study of 4.5 mg naltrexone/day in active Crohn's disease, 17 patients; type: in vivo, human
Protocol: Infliximab was not allowed for a minimum of 8 weeks prior to study initiation. Other therapy for Crohn's disease that was at a stable dose for 4 weeks prior to enrollment was continued at the same doses. Patients completed the inflammatory bowel disease questionnaire (IBDQ) and the short-form (SF-36) quality of life surveys and CDAI scores were assessed pretreatment, every 4 weeks on therapy and 4 weeks after completion of the study drug. Drug was administered by mouth each evening for a 12-week period. RESULTS: Seventeen patients with a mean CDAI score of 356+/−27 were enrolled.

Hepatitis C = test: Case reports, Hepatitis C; type: in vivo, human
Excerpt: In May 2010, it had dropped down to 11.400.

diabetic neuropathy = test: Case report, diabetic neuropathy; type: in vivo, human
Excerpt: person, diagnosed with diabetic neuropathy for the last six years was prescribed one or two tablets every four to six hours as needed for pain. Patient takes between 4 to 8 tablets a day.

[3] = system: adenocarcinoma of the pancreas with metastases to the liver; conditions: person, cited from earlier work
fibromyalgia [4] = test: Open label single center study in 25 fibromyalgia patients; type: in vivo, human
[5] = system: A549 (lung) and HCT116 (CRC); test: Continuous 48 h exposure to naltrexone, lung and CRC cells
asymptomatic HIV+ adults = conditions: 3 mg compounded, with ART, cited from earlier work
myasthenia gravis = test: Case report, myasthenia gravis; type: in vivo, human; conditions: person four
fibromyalgia [6] = test: Case report, Fibromyalgia and Epstein Barr; type: in vivo, human; conditions: person; 0.5 mg increased to 3 mg
Excerpt: A person was diagnosed in 1998 Fibromyalgia and Epstein Barr, had to quit work, in pain and very depressed. Various treatments over the years for pain prescribed and other problems with the disease.

ovarian cancer cells = test: Ovarian cancer cells treated with different dosing regimens of naltrexone; type: cell-based; conditions: water control
Protocol: They also prevent the adhesion of cancer cells to bone marrow stromal cells and thereby inhibit the enhanced secretion of migratory factors, such as interleukin (IL)-6, TNF-α, and vascular endothelial growth factor. In research experiments, ovarian cancer cells were treated with either water as the control or different dosing regimens of naltrexone to replicate high dose versus Immediate release dosing of naltrexone.

Compound: O=C1CC[C@@]2(O)[C@H]3Cc4ccc(O)c5c4[C@@]2(CCN3CC2CC2)[C@H]1O5 [Immediate release naltrexone, naltrexone]
- reduction of baseline pain (fibromyalgia [1]; 4.5 mg oral daily, placebo 18.0%, P=0.016): 28.8%
- mood (fibromyalgia [1]; P=0.039): improved
- general satisfaction with life (fibromyalgia [1]; P=0.045): improved
- fatigue or sleep (fibromyalgia [1]; in vivo): not improved
- serious side effects (fibromyalgia [1]; in vivo): no serious side effects
- tolerability (fibromyalgia [1]; in vivo): equally tolerable as placebo
- expression of CDK Inhibitors p15, p18, p19, and p27 [2]: not altered
- side effect (Hashimoto's; person one): strange dreams
- Latest lab work (Hashimoto's; person, 1.5 mg): normal in all areas
- use of other medication (Hashimoto's; person, 1.5 mg): able to go off the Advair, Nasacort, and Albuterol
- TPO levels (Hashimoto's; person, 4.5 mg with T3/T4, from 350): returned to normal
- TgAb (Hashimoto's; person, 4.5 mg, lowered from 77): < 1
- TPO (Hashimoto's; person, lowered from 229): 203
- serious adverse events (multiple sclerosis (MS); human, in vivo): did not occur
- tolerability (multiple sclerosis (MS); human, in vivo): well tolerated
- improvement on the Mental Health Inventory (multiple sclerosis (MS); p<0.01): 6 point
- improvement on the Pain Effects Scale (multiple sclerosis (MS); p=0.04): 1.6 point
- improvement on the Perceived Deficits Questionnaire (multiple sclerosis (MS); p=0.05): 2.4 point
- disease status (stomach cancer; December of 2007): in remission and stable
- CT scan (stomach cancer; March 2008): tumors had shrunk in half
- scan (stomach cancer; March of 2009): tumors were stable
- CT scan (stomach cancer; person, 4.5 mg plus chemotherapy, September 2007): tumors shrunk in half
- CDAI scores (Crohn's disease; 4.5 mg/day by mouth each evening, 12 weeks, baseline 356+/−27, P=0.01): decreased significantly
- patients who achieved a remission (Crohn's disease; P<0.001): 67%
- laboratory abnormalities (Crohn's disease; human, in vivo): No laboratory abnormalities
- quality of life surveys (IBDQ, SF-36) vs baseline (Crohn's disease; human, in vivo): Improvement
- Liver enzymes (Hepatitis C; person three): dropped to normal
- ultrasound of liver (Hepatitis C; person three): No fatty liver
- HCV viral load (Hepatitis C; person three, from over a million in January 2009, May 2009): 49,000
- use of other medication (Hepatitis C; person, Hepatitis C and Diabetes, 4 mg once a day in the morning): no longer takes prednisone or other immunosupression drugs
- Viral load (Hepatitis C; person, stage 4 cirrhosis, 4.5 mg from March of 2011, from 24.4 million, by May of 2011): 11.9 million
- use of pain tablets (diabetic neuropathy; person, 4.5 mg, within 3 days): cut down the number of pills in half
- use of pain medication (diabetic neuropathy; within 8 weeks): stopped all pain medication
- duration of comparatively stable disease ([3]; 4.5 mg at bedtime with IV and oral ALA, selenium, silymarin, diet): > 3 year
- quality of life ([3]; same regimen): improved
- overall improvement in FIQR (fibromyalgia [4]; 4.5 mg, at Month 3, 22 patients completing): 19.5%
- average improvement in FIQR (fibromyalgia [4]; Eleven patients (50%)): 41%
- effect on A549 (lung) and HCT116 (CRC) [5]: no effect
- improvement in CD4 count vs control group (asymptomatic HIV+ adults; at 6 months (p=0.041)): significantly greater
- improvement in CD4 count vs control group (asymptomatic HIV+ adults; at 9 months (p=0.067)): marginally
- Improvement in CD4% (asymptomatic HIV+ adults; throughout treatment): not statistically significant
- attacks after resuming treatment (myasthenia gravis): no attacks since
- time to return of symptoms after running out of drug (myasthenia gravis): ≤ 72 h
- pain level decreased (fibromyalgia [6]): 90%
- growth of cancer cells (ovarian cancer cells; Immediate release low or short-term dosing): slowed
- growth of cancer cells (ovarian cancer cells; high dose of naltrexone): stimulated and grew faster
